± gives the uncertainty stated by the source. Over roughly 9,900 compounds, “viability index relative to DMSO control” has its median near 1; the lowest 2% begin near 0.85. The list shows a part of the results.

For this experiment, the system named is Plasmodium falciparum NF54 stage V gametocytes. Briefly: viability index relative to DMSO control (fraction); higher = less gametocyte killing. To be noted: 2.5 µM, library set: Broad Institute DOS, incubation time: 72 h. Put shortly:
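P. falciparum NF54 stage V gametocytes in serum-free screening medium (0.75% gametocytemia, 1.25% hematocrit, 10 µl) were incubated with compound at 2.5 µM in 1,536-well plates for 72 hr at 37°C under low oxygen. Then 3 µl of 2.5 µM MitoTracker Red CMXRos plus 0.13% saponin was added for one to two hours. One field per well was imaged, 20–70 µm2 red particles were counted, and the viability index was the count divided by the plate mean of DMSO wells.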
`COc1ccc2c3c([C@H](CO)N(C)C[C@]33CCN(CC3)C(=O)c3ccc4OCOc4c3)n(C)c2c1`: the viability index came out at 0.888 ± 0.035.

As for `O=C1CN(S(=O)(=O)Cc2ccccc2)C[C@H]2[C@H](c3ccc(C#Cc4ccccc4)cc3)[C@@H](CO)N12`, the viability index was 0.955 ± 0.09.

`CCCNC(=O)N1C[C@]2(CCN(CC2)C(=O)Cc2cccnc2)c2c([nH]c3cc(OC)ccc23)[C@H]1CO` registered a viability index of 1.06 ± 0.06.

Consider `C[C@@H]1CN([C@H](C)CO)C(=O)c2cc(NC(=O)Nc3cccc4ccccc34)ccc2O[C@@H](C)CCCCO[C@@H]1CN(C)Cc1ccc(C(F)(F)F)cc1`, for which the viability index came out at 1.07 ± 0.15.

The compound `CN1C(=O)c2cc(NC(=O)C3CCOCC3)ccc2OC[C@H]2O[C@H](CC(=O)NCC3CCCCC3)CC[C@@H]21` registered a viability index of 1.12 ± 0.029.

Compound `COc1cccc(NC(=O)N[C@@H]2C=C[C@@H](CC(=O)NCc3ccncn3)O[C@H]2CO)c1` returned a viability index of 0.999 ± 0.02.

The compound `O=C(C[C@H]1C=C[C@@H](NC(=O)Nc2ccc3c(c2)OCO3)[C@@H](CO)O1)NCCCN1CCOCC1` showed a viability index of 0.9 ± 0.15.

The compound `C[C@@H]1CCCCO[C@H](CN(C)S(=O)(=O)c2ccccc2)[C@@H](C)CN([C@H](C)CO)C(=O)c2cc(NC(=O)Nc3ccc4c(c3)OCO4)ccc2O1` registered a viability index of 1.015 ± 0.0077.

In the case of `N#Cc1cccc(-c2ccc([C@H]3[C@@H]4CN(C(=O)C5CCOCC5)C[C@H]3N4)cc2)c1`, the viability index turned out to be 1.08 ± 0.071.

`COc1cccc(-c2ccc3c(c2)O[C@@H](CN(C)Cc2cccnc2)[C@@H](C)CN([C@H](C)CO)S3(=O)=O)c1` had a viability index of 0.97 ± 0.042.

In turn, `O=C(O)[C@@H]1[C@@H](CO)[C@@H]2Cn3c(ccc(-c4cccc(F)c4)c3=O)[C@@H]2N1C(=O)c1ccccn1` showed a viability index of 1.02 ± 0.03.

Compound `C[C@H]1CCCCO[C@@H](CN(C)Cc2ccc3c(c2)OCO3)[C@@H](C)CN([C@@H](C)CO)C(=O)c2cc(NS(=O)(=O)c3cn(C)cn3)ccc2O1` showed a viability index of 1.08 ± 0.071.

In turn, `O=C([C@@H]1[C@@H](CO)[C@@H]2Cn3c(ccc(-c4ccc(F)cc4)c3=O)[C@@H]2N1Cc1cocn1)N1CCCCC1` yielded a viability index of 0.896 ± 0.015.

`COC(=O)C[C@@H]1C[C@H]2c3cc(N)ccc3O[C@H]2[C@@H](CO)O1`: the viability index is 1.145 ± 0.011.

Regarding `C[C@H](CO)N1C[C@H](C)[C@@H](CN(C)S(=O)(=O)c2cccs2)OCc2ccccc2-c2ccccc2C1=O`, the viability index is 1.02 ± 0.054.

Turning to `C[C@@H]1CCCCO[C@@H](CN(C)Cc2ccncc2)[C@H](C)CN([C@H](C)CO)C(=O)c2cc(NS(=O)(=O)c3ccc(Cl)cc3)ccc2O1`, the viability index worked out at 1.025 ± 0.0067.

With `C[C@@H]1CN([C@H](C)CO)C(=O)c2cc(NS(=O)(=O)c3ccccc3)ccc2O[C@@H](C)CCCCO[C@@H]1CN(C)C(=O)C1CCCCC1`, the viability index was 1.01 ± 0.13.

In turn, `COc1ccc(S(=O)(=O)Nc2ccc3c(c2)CC(=O)N([C@H](C)CO)C[C@@H](C)[C@@H](CN(C)Cc2ccc(C(=O)Nc4ccccc4N)cc2)O3)cc1` registered a viability index of 0.956 ± 0.014.

`C[C@@H]1CN([C@@H](C)CO)S(=O)(=O)c2ccc(C#CC(C)(C)O)cc2O[C@@H]1CN(C)Cc1ccc(F)cc1` returned a viability index of 1.04 ± 0.061.

In turn, `C[C@H]1CN([C@@H](C)CO)C(=O)c2c(c3ccccc3n2C)-c2ccccc2CO[C@@H]1CN(C)C(=O)[C@@H](Cc1ccccc1)N(C)C` returned a viability index of 1.07 ± 0.11.

The compound `COc1ccc(NC(=O)N(C)C[C@@H]2OCc3ccccc3-c3ccccc3C(=O)N([C@H](C)CO)C[C@@H]2C)c(OC)c1` gave a viability index of 0.941 ± 0.17.

In the case of `O=C1CNC[C@H]2[C@@H](c3ccc(-c4ccccc4F)cc3)[C@H](CO)N12`, the viability index stood at 0.996 ± 0.019.

On to `C/C=C/c1ccc2n(c1=O)C[C@H]1[C@H](CO)[C@@H](C(=O)N3CCc4ccccc4C3)[C@@H]2N1Cc1cocn1.C/C=C\c1ccc2n(c1=O)C[C@H]1[C@H](CO)[C@@H](C(=O)N3CCc4ccccc4C3)[C@@H]2N1Cc1cocn1`, for which the viability index turned out to be 0.932 ± 0.058.

In turn, `C[C@@H]1CN([C@@H](C)CO)C(=O)CCCn2nncc2CO[C@@H]1CN(C)S(=O)(=O)c1cn(C)cn1` gave a viability index of 1.07 ± 0.041.

The compound `CO[C@@H](CN(C)C(=O)c1cc(Cl)cc(Cl)c1)[C@H](C)CN(C(=O)Nc1ccc(F)cc1)[C@@H](C)CO` yielded a viability index of 1.07 ± 0.18.

As to `CC(=O)N1CCCCN2[C@@H](CO)[C@@H](c3ccc(-c4ccccc4)cc3)[C@@H]2C1`, the viability index came out at 0.865 ± 0.2.

For the compound `O=C(Cc1ccccn1)N1CC2(C1)[C@@H](c1ccccc1)[C@@H](CO)N2C(=O)c1ccncc1`, the viability index turned out to be 1.04 ± 0.046.

In turn, `CNC[C@@H]1OCc2cn(nn2)CCCC(=O)N([C@@H](C)CO)C[C@H]1C` registered a viability index of 1.03 ± 0.11.

`OC[C@@H]1[C@H](c2ccc(-c3cccc(F)c3)cc2)[C@H]2CN(Cc3cncnc3)CCCCN12` registered a viability index of 1.06 ± 0.036.

`CO[C@H](CN(C)C(=O)c1cc(Cl)cc(Cl)c1)[C@H](C)CN(C(=O)Nc1ccc(F)cc1)[C@H](C)CO`: the viability index was 1.08 ± 0.028.

The compound `CS(=O)(=O)N1CC(=O)N2[C@@H](CO)[C@H](c3ccc(C#Cc4ccc(F)cc4)cc3)[C@@H]2C1` had a viability index of 1.0205 ± 0.00046.

`CCC(=O)N1CC2(C1)[C@@H](c1ccc(-c3ccc(F)cc3)cc1)[C@H](CO)N2C(C)=O`: the viability index worked out at 1.12 ± 0.041.

`CCN1[C@@H]2Cn3c(ccc(-c4ccccc4OC)c3=O)[C@H]1[C@@H](C(=O)NCc1ccccn1)[C@@H]2CO`: the viability index was found to be 0.945 ± 0.059.

On to `COc1ccc2c3c([nH]c2c1)[C@H](CO)N(C[C@]31CCN(CC1)C(=O)Cc1cccnc1)S(=O)(=O)c1ccc(C)cc1`, for which the viability index was 0.75 ± 0.079.

`COc1ccc2c3c([C@H](CO)N(Cc4cccc(F)c4)C[C@]33CCN(CC3)C(=O)Cc3ccccc3)n(C)c2c1` registered a viability index of 0.947 ± 0.02.

In the case of `C[C@@H]1CN([C@@H](C)CO)C(=O)c2cc(NC(=O)C3CC3)ccc2O[C@H]1CN(C)S(=O)(=O)c1ccccc1`, the viability index came out at 0.9821 ± 0.0066.

Turning to `COc1ccccc1S(=O)(=O)N(C)C[C@@H]1OCc2cn(nn2)CCCC(=O)N([C@H](C)CO)C[C@@H]1C`, the viability index worked out at 1.06 ± 0.044.

In turn, `COc1ccc2c3c([C@H](CO)N(C[C@]33CCN(CC3)C(=O)C3CCCC3)S(C)(=O)=O)n(C)c2c1` had a viability index of 0.984 ± 0.11.

As for `C[C@@H](O)C#Cc1ccc([C@H]2[C@@H](CO)N3CCCCN(CC4CC4)C[C@H]23)cc1`, the viability index is 1.01 ± 0.025.

The compound `C[C@H](CO)N1C[C@H](C)[C@H](CN(C)C(=O)Nc2ccnc(N3CCOCC3)c2)OCc2cnnn2CCCC1=O` returned a viability index of 1.039 ± 0.0034.

As for `COc1ccc(CNC(=O)C[C@@H]2C=C[C@H](NC(=O)c3cccc(F)c3)[C@@H](CO)O2)cc1`, the viability index worked out at 0.967 ± 0.044.

Compound `O=C(C[C@H]1C[C@H]2c3cc(NC(=O)c4cccnc4)ccc3O[C@H]2[C@H](CO)O1)NCc1cc(F)ccc1F` displayed a viability index of 1.06 ± 0.019.

These data come from the supplement of paper PMC4723716.
